# Measurements taken from the supplement of paper PMC10037445.
# Over roughly 2,900 compounds, “NF-kB SEAP reporter activity, fold change vs agonist alone” has its median near 0.99; the highest 2% begin near 2.6. Some of the results follow.
# How the values were obtained:
# RAW-Dual [1] = experiment: NF-kB SEAP reporter activity, fold change vs agonist alone; cytotoxicity flag (confluency mask): not cytotoxic; higher = enhanced NF-kB activity
# Method in brief: (§1)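 RAW-Dual macrophages (50,000 cells/well in DMEM, 384-well plates) received 50 nL of library stock by pin tool, then a PRR agonist 1 h later, and were kept at 37 °C, 5% CO2. After 20 hours, supernatant was read for IRF by QuantiLuc luminescence and for NF-κB by QuantiBlue absorbance at 620 nm. Reporter activity is fold change over agonist-alone wells. Cytotoxic wells had IncuCyte confluency below 70% of agonist controls in both mask sets.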
# RAW-Dual [2] = experiment: NF-kB SEAP reporter activity, fold change vs agonist alone; higher = enhanced NF-kB activity
# Method in brief: as §1
# RAW-Dual [3] = experiment: NF-kB SEAP reporter activity, fold change vs agonist alone; cytotoxicity flag (confluency mask): cytotoxic (confluency <70% of control); higher = enhanced NF-kB activity
# Method in brief: as §1
# [4] = agonist: ODN 1826 (TLR9) 0.5 ug/mL
# [5] = agonist: Pam2CSK4 (TLR2/6) 0.1 ug/mL
# [6] = agonist: Pam3CSK4 (TLR2/1) 0.1 ug/mL
# [7] = library stock concentration (final ~1000-fold dilution): 10 mM, cytotoxicity flag (confluency mask): not cytotoxic, agonist: Imiquimod (TLR7) […]
# [8] = library stock concentration (final ~1000-fold dilution): 10 mM, cytotoxicity flag (confluency mask): not cytotoxic, agonist: MPLA (TLR4) […]
smiles,measurement,setting,value
COC(=O)C(N)CCCNC(=N)N[N+](=O)[O-].Cl (configuration not stated) (library stock concentration (final ~1000-fold dilution): 10 mM water),NF-kB SEAP reporter activity,RAW-Dual [1]; agonist: LPS (TLR4) 0.1 ug/mL,1.14
same,NF-kB SEAP reporter activity,RAW-Dual [1]; [4],1.2
same,NF-kB SEAP reporter activity,RAW-Dual [1]; [5],1.16
same,NF-kB SEAP reporter activity,RAW-Dual [1]; [6],1.06
COc1ccc(C(=O)O)cc1OC (library stock concentration (final ~1000-fold dilution): 10 mM),NF-kB SEAP reporter activity,RAW-Dual [1]; agonist: LPS (TLR4) 0.1 ug/mL,0.902
same,NF-kB SEAP reporter activity,RAW-Dual [1]; [4],0.899
same,NF-kB SEAP reporter activity,RAW-Dual [1]; [5],0.948
same,NF-kB SEAP reporter activity,RAW-Dual [1]; [6],0.853
COc1ccc(C(=O)O)cc1OC,NF-kB SEAP reporter activity,RAW-Dual [2]; [7],0.927
same,NF-kB SEAP reporter activity,RAW-Dual [2]; [8],1.06
CN(C)C(=O)Oc1cccc([N+](C)(C)C)c1.COS(=O)(=O)[O-] (library stock concentration (final ~1000-fold dilution): 10 mM),NF-kB SEAP reporter activity,RAW-Dual [1]; agonist: LPS (TLR4) 0.1 ug/mL,1.02
same,NF-kB SEAP reporter activity,RAW-Dual [1]; [4],0.966
same,NF-kB SEAP reporter activity,RAW-Dual [1]; [5],0.985
same,NF-kB SEAP reporter activity,RAW-Dual [1]; [6],1.04
CN(C)C(=O)Oc1cccc([N+](C)(C)C)c1.COS(=O)(=O)[O-],NF-kB SEAP reporter activity,RAW-Dual [2]; [7],0.924
same,NF-kB SEAP reporter activity,RAW-Dual [2]; [8],1.01
CCCCC(C#N)(Cn1cncn1)c1ccc(Cl)cc1 (configuration not stated) (library stock concentration (final ~1000-fold dilution): 10 mM),NF-kB SEAP reporter activity,RAW-Dual [1]; agonist: LPS (TLR4) 0.1 ug/mL,1.07
same,NF-kB SEAP reporter activity,RAW-Dual [1]; [4],0.884
same,NF-kB SEAP reporter activity,RAW-Dual [1]; [5],1.02
same,NF-kB SEAP reporter activity,RAW-Dual [1]; [6],0.935
CCCCC(C#N)(Cn1cncn1)c1ccc(Cl)cc1 (configuration not stated),NF-kB SEAP reporter activity,RAW-Dual [2]; [7],1.14
same,NF-kB SEAP reporter activity,RAW-Dual [2]; [8],1.18
CCc1c(C(=O)C(N)=O)c2c(OCC(=O)O)cccc2n1Cc1ccccc1,NF-kB SEAP reporter activity,RAW-Dual [2]; [7],0.909
same,NF-kB SEAP reporter activity,RAW-Dual [2]; [8],0.825
CCc1c(C(=O)C(N)=O)c2c(OCC(=O)O)cccc2n1Cc1ccccc1 (library stock concentration (final ~1000-fold dilution): 10 mM),NF-kB SEAP reporter activity,RAW-Dual [1]; agonist: LPS (TLR4) 0.1 ug/mL,0.927
same,NF-kB SEAP reporter activity,RAW-Dual [1]; [4],0.962
same,NF-kB SEAP reporter activity,RAW-Dual [1]; [5],1.02
same,NF-kB SEAP reporter activity,RAW-Dual [1]; [6],1.04
O=c1[nH]c2ccc(Cl)cc2c(NC2CN3CCC2CC3)c1-c1nc2ccccc2[nH]1 (configuration not stated) (library stock concentration (final ~1000-fold dilution): 10 mM),NF-kB SEAP reporter activity,RAW-Dual [1]; agonist: LPS (TLR4) 0.1 ug/mL,0.181
same,NF-kB SEAP reporter activity,RAW-Dual [1]; [4],1.22
same,NF-kB SEAP reporter activity,RAW-Dual [1]; [5],0.0861
same,NF-kB SEAP reporter activity,RAW-Dual [1]; [6],0.298
O=c1[nH]c2ccc(Cl)cc2c(NC2CN3CCC2CC3)c1-c1nc2ccccc2[nH]1 (configuration not stated),NF-kB SEAP reporter activity,RAW-Dual [2]; [7],1.06
same,NF-kB SEAP reporter activity,RAW-Dual [2]; [8],0.846
CN1C(=O)COc2c(C(=O)NC3CN4CCC3CC4)cc(Cl)cc21.Cl (configuration not stated) (library stock concentration (final ~1000-fold dilution): 2 mM water),NF-kB SEAP reporter activity,RAW-Dual [1]; agonist: LPS (TLR4) 0.1 ug/mL,1.38
same,NF-kB SEAP reporter activity,RAW-Dual [1]; [4],1.05
same,NF-kB SEAP reporter activity,RAW-Dual [1]; [5],1.14
same,NF-kB SEAP reporter activity,RAW-Dual [1]; [6],1.21
CN1C(=O)COc2c(C(=O)NC3CN4CCC3CC4)cc(Cl)cc21.Cl (configuration not stated),NF-kB SEAP reporter activity,"RAW-Dual [2]; library stock concentration (final ~1000-fold dilution): 2 mM water, cytotoxicity flag (confluency mask): not cytotoxic, agonist: Imiquimod (TLR7) […]",0.919
same,NF-kB SEAP reporter activity,"RAW-Dual [2]; library stock concentration (final ~1000-fold dilution): 2 mM water, cytotoxicity flag (confluency mask): not cytotoxic, agonist: MPLA (TLR4) […]",1.01
CC(NC(C)(C)C)C(=O)c1cccc(Cl)c1.Cl (configuration not stated) (library stock concentration (final ~1000-fold dilution): 10 mM),NF-kB SEAP reporter activity,RAW-Dual [1]; agonist: LPS (TLR4) 0.1 ug/mL,0.905
same,NF-kB SEAP reporter activity,RAW-Dual [1]; [4],0.938
same,NF-kB SEAP reporter activity,RAW-Dual [1]; [5],1.02
same,NF-kB SEAP reporter activity,RAW-Dual [1]; [6],1.07
CC(NC(C)(C)C)C(=O)c1cccc(Cl)c1.Cl (configuration not stated),NF-kB SEAP reporter activity,RAW-Dual [2]; [7],0.904
same,NF-kB SEAP reporter activity,RAW-Dual [2]; [8],0.762
COc1cc(C2c3cc4c(cc3C(O)C3COC(=O)C23)OCO4)cc(OC)c1OC (configuration not stated),NF-kB SEAP reporter activity,"RAW-Dual [2]; library stock concentration (final ~1000-fold dilution): 10 mM, cytotoxicity flag (confluency mask): cytotoxic (confluency <70% of control), agonist: Imiquimod (TLR7) […]",1.61
same,NF-kB SEAP reporter activity,"RAW-Dual [2]; library stock concentration (final ~1000-fold dilution): 10 mM, cytotoxicity flag (confluency mask): cytotoxic (confluency <70% of control), agonist: MPLA (TLR4) […]",1.92
COc1cc(C2c3cc4c(cc3C(O)C3COC(=O)C23)OCO4)cc(OC)c1OC (configuration not stated) (library stock concentration (final ~1000-fold dilution): 10 mM),NF-kB SEAP reporter activity,RAW-Dual [3]; agonist: LPS (TLR4) 0.1 ug/mL,5.49
same,NF-kB SEAP reporter activity,RAW-Dual [3]; [4],2.81
same,NF-kB SEAP reporter activity,RAW-Dual [3]; [5],1.6
same,NF-kB SEAP reporter activity,RAW-Dual [3]; [6],2.18
CN1CCN(C(=O)COc2ccc(C34CC5CC(CC(C5)C3)C4)cc2)CC1,NF-kB SEAP reporter activity,RAW-Dual [2]; [7],0.743
same,NF-kB SEAP reporter activity,RAW-Dual [2]; [8],1.34
CN1CCN(C(=O)COc2ccc(C34CC5CC(CC(C5)C3)C4)cc2)CC1 (library stock concentration (final ~1000-fold dilution): 10 mM),NF-kB SEAP reporter activity,RAW-Dual [1]; agonist: LPS (TLR4) 0.1 ug/mL,1.29
same,NF-kB SEAP reporter activity,RAW-Dual [1]; [4],1.1
same,NF-kB SEAP reporter activity,RAW-Dual [1]; [5],1.2
same,NF-kB SEAP reporter activity,RAW-Dual [1]; [6],1.36
CC1CCC2(OC1)OC1CC3C4CC=C5CC(OC6OC(CO)C(OC7OC(C)C(O)C(O)C7O)C(O)C6OC6OC(C)C(O)C(O)C6O)CCC5(C)C4CCC3(C)C1C2C (configuration not stated),NF-kB SEAP reporter activity,RAW-Dual [2]; [7],1.02
same,NF-kB SEAP reporter activity,RAW-Dual [2]; [8],0.906
CC1CCC2(OC1)OC1CC3C4CC=C5CC(OC6OC(CO)C(OC7OC(C)C(O)C(O)C7O)C(O)C6OC6OC(C)C(O)C(O)C6O)CCC5(C)C4CCC3(C)C1C2C (configuration not stated) (library stock concentration (final ~1000-fold dilution): 10 mM),NF-kB SEAP reporter activity,RAW-Dual [1]; agonist: LPS (TLR4) 0.1 ug/mL,0.601
same,NF-kB SEAP reporter activity,RAW-Dual [1]; [4],0.957
same,NF-kB SEAP reporter activity,RAW-Dual [1]; [5],1.27
same,NF-kB SEAP reporter activity,RAW-Dual [1]; [6],0.998
CC(=O)OC1CN2CCC1CC2.Cl (configuration not stated),NF-kB SEAP reporter activity,RAW-Dual [2]; [7],0.919
same,NF-kB SEAP reporter activity,RAW-Dual [2]; [8],1.07
CC(=O)OC1CN2CCC1CC2.Cl (configuration not stated) (library stock concentration (final ~1000-fold dilution): 10 mM),NF-kB SEAP reporter activity,RAW-Dual [1]; agonist: LPS (TLR4) 0.1 ug/mL,1.09
same,NF-kB SEAP reporter activity,RAW-Dual [1]; [4],0.909
same,NF-kB SEAP reporter activity,RAW-Dual [1]; [5],1.08
same,NF-kB SEAP reporter activity,RAW-Dual [1]; [6],1.03
CCC1CN2CCC3(C(=O)Nc4ccccc43)C2CC1/C(=C\OC)C(=O)OC (configuration not stated) (library stock concentration (final ~1000-fold dilution): 10 mM),NF-kB SEAP reporter activity,RAW-Dual [1]; agonist: LPS (TLR4) 0.1 ug/mL,1.1
same,NF-kB SEAP reporter activity,RAW-Dual [1]; [4],0.873
same,NF-kB SEAP reporter activity,RAW-Dual [1]; [5],0.87
same,NF-kB SEAP reporter activity,RAW-Dual [1]; [6],0.852
CCC1CN2CCC3(C(=O)Nc4ccccc43)C2CC1/C(=C\OC)C(=O)OC (configuration not stated),NF-kB SEAP reporter activity,RAW-Dual [2]; [7],0.907
same,NF-kB SEAP reporter activity,RAW-Dual [2]; [8],1.25
Nc1ncnc2c1ccn2C1OC(C(O)c2ccccc2)C(O)C1O (configuration not stated),NF-kB SEAP reporter activity,RAW-Dual [2]; [7],1.02
same,NF-kB SEAP reporter activity,RAW-Dual [2]; [8],0.975
Nc1ncnc2c1ccn2C1OC(C(O)c2ccccc2)C(O)C1O (configuration not stated) (library stock concentration (final ~1000-fold dilution): 10 mM),NF-kB SEAP reporter activity,RAW-Dual [1]; agonist: LPS (TLR4) 0.1 ug/mL,0.957
same,NF-kB SEAP reporter activity,RAW-Dual [1]; [4],1.03
same,NF-kB SEAP reporter activity,RAW-Dual [1]; [5],0.892
same,NF-kB SEAP reporter activity,RAW-Dual [1]; [6],1.19
